Reference: the supplement of paper PMC9446081
The campaign covered roughly 39,000 compounds. About 220 (0.56%) showed activity. Some of the results follow.

tested on: Escherichia coli K-12 BW25113; assay: relative growth (OD600 normalised to plate interquartile mean) (fraction); higher = less growth inhibition, active = 0.2 or less; conditions: 50 µM; LB; incubation time: overnight (16-24 h)
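Also: static incubation at 37 °C against the wild-type strain, values averaged over two biological replicates.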

Row | SMILES | relative growth
1 | C[C@@H]1CN([C@H](C)CO)C(=O)c2cccc(NS(=O)(=O)c3cn(C)cn3)c2O[C@H]1CN(C)Cc1ccc(C(=O)O)cc1 | inactive: 1.04
2 | COc1ccc(CN(C)C[C@@H]2Oc3c(NC(=O)c4cc(C)nn4C)cccc3C(=O)N([C@H](C)CO)C[C@H]2C)cc1 | inactive: 1.01
3 | COCCOC(=O)N1C(=O)[C@@]2(c3cc(C#CCC(C(=O)OC)C(=O)OC)ccc31)[C@H](c1ccccc1OCCO)N1[C@H](c3ccccc3)[C@H](c3ccccc3)OC(=O)[C@H]1[C@@H]2C(=O)Nc1nc2ccccc2s1 | inactive: 0.997
4 | O=C(C[C@@H]1CC=CCC[C@H](Cc2ccc(F)cc2)C(=O)OCCNC1=O)N[C@@H](CO)Cc1ccccc1 | inactive: 1.01
5 | C/C(=C\CO)CC[C@H](C)CCC[C@H](C)CCCC(C)C | inactive: 1.04
6 | C[C@H](CO)N1C[C@H](C)[C@H](CN(C)Cc2ccc(C(=O)O)cc2)Oc2c(NC(=O)C3CCOCC3)cccc2C1=O | inactive: 0.99
7 | COCCNC(=O)C[C@H]1CC[C@H]2[C@@H](COc3ccc(NS(=O)(=O)c4ccc(Cl)cc4)cc3C(=O)N2C)O1 | inactive: 0.979
8 | C[C@H](CO)N1C[C@H](C)[C@@H](CN(C)S(=O)(=O)c2ccc(Cl)cc2)Oc2ccc(NC(=O)C3CC3)cc2C1=O | inactive: 1
9 | CC(C)CC#Cc1ccc2c(c1)O[C@H](CN(C)C(=O)NC1CCCC1)[C@@H](C)CN([C@@H](C)CO)S2(=O)=O | inactive: 0.986
10 | CN1C(=O)c2cc(NC(=O)C3CCOCC3)ccc2OC[C@H]2O[C@@H](CC(=O)NCc3ccccc3F)CC[C@@H]21 | inactive: 0.944
11 | C[C@H](CO)N1C[C@H](C)[C@H](CN(C)C(=O)Nc2ccc(F)cc2)Oc2ccc(NC(=O)CCCN(C)C)cc2C1=O | inactive: 1.02
12 | COc1ccccc1S(=O)(=O)N[C@H]1CC[C@@H](CCNC(=O)C2CC2)O[C@H]1CO | inactive: 1.01
13 | CCOC(=O)c1snc2c(=O)nc[nH]c12 | inactive: 1
14 | C[C@H]1CN([C@@H](C)CO)C(=O)c2cc(NC(=O)NC3CCCCC3)ccc2O[C@@H]1CN(C)C(=O)Nc1cccc2ccccc12 | inactive: 0.853
15 | CNS(=O)(=O)c1cc(OC)ccc1OC | inactive: 0.918
16 | COc1ccc(NC(=O)N(C)C[C@H]2OCCCC[C@H](C)Oc3ccc(NC(=O)c4ccccc4)cc3C(=O)N([C@H](C)CO)C[C@@H]2C)cc1 | inactive: 1
17 | COc1ccc(S(=O)(=O)N(C)C[C@H]2OCCCC[C@@H](C)Oc3ccc(NC(=O)Nc4ccc(F)cc4)cc3C(=O)N([C@H](C)CO)C[C@H]2C)cc1 | inactive: 1.01
